Results published in the supplement of paper PMC4967469.
The IC50 comes from the fitted curve, where viability falls to half of the control; a limit (>, <) means that the fit lies beyond the doses tested. The AUC spans the tested range (256-fold, ending at the top dose) of the same fit; values near 1 show little effect. For part of these data: Where the top dose is marked as inferred, it is not printed in the source and was worked back from the curve model.

How the values were obtained:
Assay in all cases: Viability of human cancer cell lines after 72 h of drug (GDSC screen)
XMD14-99 = compound: COc1cc(N2CCN(C)CC2)ccc1Nc1nc(N)c(C(=O)c2c(Cl)cccc2Cl)s1 [XMD14-99]; conditions: top dose 10.24 µM; top dose inferred
Protocol: (§1)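 Human cancer cell lines in 384-well plates, medium with 10% serum, drug for 72 h over a 256-fold dose range (nine 2-fold or five 4-fold steps up to the top dose). Adherent lines were fixed and stained with the nucleic acid dye Syto60, suspension lines read with resazurin; signal relative to control wells, capped at 0 and 100%. One two-parameter sigmoid per drug and line, fitted in a mixed model over all curves with the slope shared within a line.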

FH535 = compound: Cc1cc([N+](=O)[O-])ccc1NS(=O)(=O)c1cc(Cl)ccc1Cl [FH535]; conditions: top dose 32 µM; top dose inferred
Protocol: as §1

A-443654 = compound: Cc1n[nH]c2ccc(-c3cncc(OC[C@@H](N)Cc4c[nH]c5ccccc45)c3)cc12 [A-443654]; conditions: top dose 1.024 µM; top dose inferred
Protocol: as §1

Dasatinib = compound: Cc1nc(Nc2ncc(C(=O)Nc3c(C)cccc3Cl)s2)cc(N2CCN(CCO)CC2)n1 [Dasatinib]; conditions: top dose 1.28 µM
Protocol: as §1

Sorafenib = compound: CNC(=O)c1cc(Oc2ccc(NC(=O)Nc3ccc(Cl)c(C(F)(F)F)c3)cc2)ccn1 [Sorafenib]; conditions: top dose 4 µM
Protocol: as §1

AT-7519 = compound: O=C(NC1CCNCC1)c1n[nH]cc1NC(=O)c1c(Cl)cccc1Cl [AT-7519]; conditions: top dose 10.24 µM; top dose inferred
Protocol: as §1

Cell Line	AUC (XMD14-99)	IC50 (XMD14-99)	AUC (FH535)	IC50 (FH535)	AUC (A-443654)	IC50 (A-443654)	AUC (Dasatinib)	IC50 (Dasatinib)	AUC (Sorafenib)	IC50 (Sorafenib)	AUC (AT-7519)	IC50 (AT-7519)
MZ2-MEL (melanoma, adherent)	0.924	> 10200 nM	0.453	1460 nM	0.815	687 nM	0.673	266 nM	0.912	> 4000 nM	0.56	964 nM
NB5 (neuroblastoma, adherent)	0.98	> 10200 nM	0.768	12200 nM	0.833	674 nM	0.762	463 nM	0.96	> 4000 nM	0.884	> 10200 nM
NB7 (neuroblastoma, adherent)	0.95	> 10200 nM	0.66	5680 nM	0.936	> 1020 nM	0.961	> 1280 nM	0.828	2610 nM	0.596	1190 nM
NB14 (neuroblastoma, adherent)	0.979	> 10200 nM	0.63	4450 nM	0.93	> 1020 nM	0.989	> 1280 nM	0.768	1420 nM	0.856	7470 nM
NB(TU)1-10 (neuroblastoma, adherent)	0.993	> 10200 nM	0.744	8900 nM	0.925	> 1020 nM	0.968	> 1280 nM	0.94	> 4000 nM	0.949	> 10200 nM
NCI-H69 (small cell lung carcinoma, suspension)	0.954	> 10200 nM	0.915	> 32000 nM	0.74	341 nM	0.966	> 1280 nM	0.961	> 4000 nM	0.724	3010 nM
NCI-H82 (small cell lung carcinoma, suspension)	0.987	> 10200 nM	0.77	11500 nM	0.644	157 nM	0.988	> 1280 nM	0.969	> 4000 nM	0.462	507 nM
NCI-H209 (small cell lung carcinoma, suspension)	0.973	> 10200 nM	0.92	> 32000 nM	0.696	237 nM	0.985	> 1280 nM	0.97	> 4000 nM	0.357	250 nM
NCI-H211 (small cell lung carcinoma, adherent)	0.941	> 10200 nM	0.789	13700 nM	0.771	380 nM	0.925	> 1280 nM	0.954	> 4000 nM	0.359	265 nM
NCI-H510A (small cell lung carcinoma, semi-adherent)	0.974	> 10200 nM	0.821	16600 nM	0.717	248 nM	0.942	> 1280 nM	0.856	2820 nM	0.99	> 10200 nM
NCI-H524 (small cell lung carcinoma, suspension)	0.991	> 10200 nM	0.781	11800 nM	0.747	298 nM	0.982	> 1280 nM	0.943	> 4000 nM	0.64	1490 nM
NCI-H526 (small cell lung carcinoma, suspension)	0.861	8090 nM	0.881	30900 nM	0.851	732 nM	0.983	> 1280 nM	0.99	> 4000 nM	0.372	289 nM
NCI-H748 (small cell lung carcinoma, suspension)	0.957	> 10200 nM	0.952	> 32000 nM	0.735	367 nM	0.971	> 1280 nM	0.942	> 4000 nM	0.289	136 nM
NCI-H1155 (large cell lung carcinoma, suspension)	0.993	> 10200 nM	0.953	> 32000 nM	0.83	492 nM	0.993	> 1280 nM	0.954	> 4000 nM	0.918	> 10200 nM
NCI-H1417 (small cell lung carcinoma, suspension)	0.93	> 10200 nM	0.801	19300 nM	0.804	631 nM	0.982	> 1280 nM	0.97	> 4000 nM	0.433	405 nM
NCI-H1436 (small cell lung carcinoma, suspension)	0.952	> 10200 nM	0.898	> 32000 nM	0.811	640 nM	0.985	> 1280 nM	0.753	1510 nM	0.894	> 10200 nM
